Reference: ChEMBL document CHEMBL4888484, “Replenishing the malaria drug discovery pipeline: Screening and hit evaluation of the MMV Hit Generation Library 1 (HGL1) against asexual blood stage Plasmodium falciparum ,using a nano luciferase reporter read-out” (2022)
The campaign covered roughly 150,000 compounds. About 540 (0.36%) showed an effect of 50% or more. This is one part of the list.

Tested on: Plasmodium falciparum
Assay: Primary screen in NF54 nanoGlo assay, in single point, at 2uM, 72h; a lower Z score goes with more inhibition
Type: functional, Erythrocyte
Settings: timepoint 72 hour

Row | SMILES | % Inhibition [%] | Z score
1 | O=C(Cc1ccccc1)N1CCN(CC2CC3C=CC2C3)CC1 (stereo not given) | -12 | 1.55
2 | CN1CC[C@@]2(CCCN(c3ccncc3F)C2)C1 | -8 | 0.76
3 | C[C@]1(CNC(=O)Nc2cccc3[nH]c(=O)oc23)CCOC1 | -14 | 2.75
4 | C[C@@H](Cc1ccccc1F)NCC(F)(F)CO | -7 | 1.04
5 | CN1CCOC2CCN(C(=O)NCC(C)(C)c3ccncc3)CC21 (stereo not given) | 1 | -0.17
6 | NCCc1ccc(Br)cc1 | -11 | 1.26
7 | CC(=O)c1cc(OC(=O)N2CCOCC2)ccc1OC(=O)N1CCOCC1 | 6 | -1.09
8 | CC(C)N1C[C@H](CNC(=O)c2ccccn2)C2(CCCCC2)C1 | 3 | -0.48
9 | CC(C)Cn1cncc1Cn1c(=O)[nH]c2ccccc21 | -1 | 0.18
10 | COc1ccccc1[C@H]1CN(C(=O)[C@H]2CC[C@@H](O)CC2)[C@@H]2C3CCN(CC3)[C@H]12 | -14 | 1.99
11 | CC(C)N1CC[C@H](N2CCc3nccc(N)c3C2)C1=O | 5 | -0.65
12 | CCc1cc(CN2C[C@H]3CC[C@@H](C2)N(CC=C(C)C)C3)on1 | -10 | 1.24
13 | CN1[C@@H]2CC[C@H]1CN(c1cccc(C#N)n1)CC2 | -10 | 2.05
14 | CC(C)N1CCCN(C(=O)Cc2cscn2)CC1 | -8 | 1.14
15 | Cc1nc(CCNC2CC3CCC2C3)cs1 (stereo not given) | -5 | 0.66
16 | Cc1cnc(C(C)NC(C)Cn2cc(Br)cn2)s1 (stereo not given) | -11 | 1.5
17 | Cc1cccc(C)c1-n1nnnc1C1(NCCc2c(C)[nH]c3c(Cl)ccc(Cl)c23)CCCCC1 | -8 | 1.42
18 | CC(=O)c1cc(CN(C)[C@@H](C)Cc2ccccn2)n(C)c1 | -2 | 0.42
19 | CN1C(=O)C([C@H]2c3ccccc3C(=O)N2Cc2ccccc2Cl)C(=O)N(C)C1=O | -1 | 0.07
20 | O=C(Cc1ccc(O)c(Cl)c1)N1CCN(CC2CCC2)CC1 | -11 | 1.76
21 | O=C(NC[C@]1(O)CN2CCC1CC2)c1cccc(C2CCC2)c1 | -5 | 1.08
22 | CCCCCC(C)NC(C)Cn1cccn1 (stereo not given) | -13 | 1.95
23 | COCCn1c(C(=O)N[C@H]2CCOC(C)(C)C2)cc2cc(Cl)ccc21 | 26 | -2.98
24 | CCc1ccnc(C(=O)NC2CCOCC2N2CCCC2)c1 (stereo not given) | -9 | 1.07
25 | CC(F)(F)CCN1C2CCC1CC(=O)C2 | -8 | 0.99
